Measurements from a collection of fitness landscapes (doi:10.1126/science.1257360).
Some of the results follow.

B1: PhoQ; a variant is named by its letters at X, in order, P23837 (parent)
chain: MKKLLRLFFPLSLRVRFLLATAAVVLVLSLAYGMVALIGYSVSFDKTTFRLLRGESNLFYTLAKWENNKLHVELPENIDKQSPTMTLIYDENGQLLWAQRDVPWLMKMIQPDWLKSNGFHEIEADVNDTSLLLSGDHSIQQQLQEVREDDDDAEMTHSVAVNVYPATSRMPKLTIVVVDTIPVELKSSYMVWSWFIYVLSANLLLVIPLLWVAAWWSLRPIEALAKEVRELEEHNRELLNPATTRELTSLVRNLNRLLKSERERYDKYRTTLTDLTHSLKTPLXXLQXXLRSLRSEKMSVSDAEPVMLEQISRISQQIGYYLHRASMRGGTLLSRELHPVAPLLDNLTSALNKVYQRKGVNISLDISPEISFVGEQNDFVEVMGNVLDNACKYCLEFVEISARQTDEHLYIVVEDDGPGIPLSKREVIFDRGQRVDTLRPGQGVGLAVAREITEQYEGKIVAGESMLGGARMEVIFGRQHSAPKDE

Variants of: B1
Test: enrichment ratio after two sorts for PhoP signalling (ratio (wild type AVST 3.29)); higher = more functional
Details: with PhoP (E. coli)

Variant	enrichment ratio
FRGF	≤ 0.25
SDRF	≤ 0.25
TWNF	≤ 0.25
FIPW	≤ 0.25
EFDL	≤ 0.25
FTWI	≤ 0.25
VEYK	≤ 0.25
QNDY	≤ 0.25
NIFA	≤ 0.25
FCVH	≤ 0.25
QCPY	≤ 0.25
RFTI	≤ 0.25
NFCN	≤ 0.25
TRHI	≤ 0.25
DCGY	≤ 0.25
GCSI	4.63
NSIW	≤ 0.25
FDFV	≤ 0.25
GLMT	≤ 0.25
VKDQ	≤ 0.25
RTCQ	≤ 0.25
HHFK	≤ 0.25
ADNT	≤ 0.25
LPVG	≤ 0.25
RFTV	≤ 0.25

Variant	enrichment ratio
QLKV	≤ 0.25
SMQF	≤ 0.25
SETH	15.6
PFET	≤ 0.25
GAFH	≤ 0.25
TMPN	≤ 0.25
PFSE	≤ 0.25
IDGR	≤ 0.25
PRDH	≤ 0.25
STII	8.73
PGTN	≤ 0.25
KTKP	≤ 0.25
IVHV	≤ 0.25
HNCL	≤ 0.25
HYKT	≤ 0.25
WARW	≤ 0.25
KDRV	≤ 0.25
TLHV	≤ 0.25
RSRP	≤ 0.25
GEGA	≤ 0.25
RRWR	≤ 0.25
NAHH	≤ 0.25
IVTP	≤ 0.25
RMNH	≤ 0.25
HAFT	≤ 0.25

Variant	enrichment ratio
QKFV	5.12
HHTM	≤ 0.25
HQEP	≤ 0.25
RACT	≤ 0.25
NYLW	≤ 0.25
THCT	10.5
GINW	≤ 0.25
IYLD	≤ 0.25
LIPS	≤ 0.25
GSTM	6.87
PFVK	≤ 0.25
DTYG	≤ 0.25
HEFG	≤ 0.25
GQFV	≤ 0.25
WLCG	≤ 0.25
FDLY	≤ 0.25
RFKD	≤ 0.25
VMYY	≤ 0.25
TEGG	5.71
AWVP	≤ 0.25
WGFE	≤ 0.25
LRMH	≤ 0.25
RESI	≤ 0.25
WQCP	≤ 0.25
SVNS	0.619

Variant	enrichment ratio
IMNV	≤ 0.25
FSYK	≤ 0.25
KLDK	≤ 0.25
HMVW	≤ 0.25
CQST	8.98
NGMR	≤ 0.25
WTHV	≤ 0.25
NGML	≤ 0.25
ARGD	≤ 0.25
KRIM	≤ 0.25
GFHV	≤ 0.25
FEIW	1.43
DCCL	≤ 0.25
NEMN	≤ 0.25
SYIP	≤ 0.25
IMVN	≤ 0.25
QPTA	≤ 0.25
TCDT	≤ 0.25
KINC	≤ 0.25
RRWD	≤ 0.25
QACV	≤ 0.25
GLWH	≤ 0.25
IQTY	≤ 0.25
LHFG	≤ 0.25
WVMR	≤ 0.25

Variant	enrichment ratio
YYAL	≤ 0.25
TDGK	≤ 0.25
LMLE	≤ 0.25
YIFH	≤ 0.25
LMTA	≤ 0.25
QMYI	2.84
PAIM	≤ 0.25
GSFY	≤ 0.25
FTKG	≤ 0.25
AYEW	≤ 0.25
YYHV	≤ 0.25
SVLV	3.5
KHWT	≤ 0.25
HLSW	≤ 0.25
RWQA	≤ 0.25
VYPP	≤ 0.25
NHQF	≤ 0.25
QVTS	≤ 0.25
TVYY	≤ 0.25
RYQY	≤ 0.25
KCIW	≤ 0.25
FTLK	0.303
QYRH	≤ 0.25
DPCC	≤ 0.25
ISQE	≤ 0.25

Variant	enrichment ratio
QMQD	≤ 0.25
RRVC	≤ 0.25
RHMC	≤ 0.25
LGNW	≤ 0.25
APMF	≤ 0.25
ASGI	3.31
ASMI	13.5
KGCH	≤ 0.25
PYWA	≤ 0.25
ETLS	≤ 0.25
QPFE	≤ 0.25
GQLR	≤ 0.25
FFDT	≤ 0.25
QVRH	≤ 0.25
PKDK	≤ 0.25
IRGC	≤ 0.25
PTWE	≤ 0.25
AQCW	5.59
GLQI	≤ 0.25
LNAA	≤ 0.25
GVLQ	6.13
GRTD	≤ 0.25
ILDV	≤ 0.25
SESA	8.46
GSAL	6.5

Variant	enrichment ratio
QFGT	≤ 0.25
SLIS	≤ 0.25
WERK	≤ 0.25
NLNG	≤ 0.25
NEPA	≤ 0.25
RWYQ	≤ 0.25
RTAR	≤ 0.25
TVYE	≤ 0.25
IKEY	≤ 0.25
RLGS	≤ 0.25
LWVQ	≤ 0.25
SCKI	≤ 0.25
YCNP	≤ 0.25
INKT	≤ 0.25
TMKF	≤ 0.25
AKVH	0.853
YPER	≤ 0.25
FGMK	≤ 0.25
ARHG	≤ 0.25
ACFR	≤ 0.25
QTIG	≤ 0.25
IGHC	≤ 0.25
YDDN	≤ 0.25
MDKI	≤ 0.25
QYAY	≤ 0.25

Variant	enrichment ratio
ANIT	≤ 0.25
LRFH	≤ 0.25
VYFK	≤ 0.25
WANR	≤ 0.25
MVDD	≤ 0.25
DSQV	≤ 0.25
HRMN	≤ 0.25
MHEM	≤ 0.25
SVER	≤ 0.25
QVHC	≤ 0.25
MRYT	≤ 0.25
NNTR	≤ 0.25
YFWD	≤ 0.25
AFYC	≤ 0.25
TRCQ	5.19
DDYP	≤ 0.25
YFPA	≤ 0.25
WPGA	≤ 0.25
WTVI	≤ 0.25
ISHE	≤ 0.25
